# Measured values published in PubChem BioAssay AID504841 (National Center for Advancing Translational Sciences (NCATS), 2011).
# Where “and” joins values, the source holds several entries; their conditions need not be identical. Equal entries are not always repeated. In all, about 1,100 compounds went through this assay and about 160 (15%) were called active. The shares of active, inactive and inconclusive entries below differ from those in the screen. Calls follow the shape of the dose curve; as a rule, active = well fitted inhibition curve with a large enough effect; inconclusive = small, poorly fitted or top-dose-only effect; inactive = no such curve, though single readings can be large or run the other way. Where the call is inconclusive, the potency comes from a doubtful curve fit.
# Molecular target: ATP-dependent DNA helicase Q1 (Homo sapiens) (UniProt P46063)
# UniProt P46063, sequence (P46063 whole entry, looked up): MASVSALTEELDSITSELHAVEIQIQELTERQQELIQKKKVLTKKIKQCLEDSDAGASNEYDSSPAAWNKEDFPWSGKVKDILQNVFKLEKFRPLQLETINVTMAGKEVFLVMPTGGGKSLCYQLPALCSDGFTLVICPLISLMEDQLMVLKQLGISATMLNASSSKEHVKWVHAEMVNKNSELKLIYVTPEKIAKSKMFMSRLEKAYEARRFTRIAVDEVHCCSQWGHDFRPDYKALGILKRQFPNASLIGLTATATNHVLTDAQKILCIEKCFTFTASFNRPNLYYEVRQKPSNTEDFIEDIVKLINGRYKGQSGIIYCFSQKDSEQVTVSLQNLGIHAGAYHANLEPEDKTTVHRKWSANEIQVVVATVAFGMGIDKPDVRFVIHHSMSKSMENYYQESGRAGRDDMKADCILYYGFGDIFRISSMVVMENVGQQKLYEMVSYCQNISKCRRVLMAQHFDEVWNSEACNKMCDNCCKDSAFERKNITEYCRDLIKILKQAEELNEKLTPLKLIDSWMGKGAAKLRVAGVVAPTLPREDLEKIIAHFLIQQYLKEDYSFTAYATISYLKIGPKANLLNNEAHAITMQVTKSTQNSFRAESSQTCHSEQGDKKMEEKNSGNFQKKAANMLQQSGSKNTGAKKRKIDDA
# Experiment: Confirmation qHTS Assay for Inhibitors of RecQ-Like Dna Helicase 1 (RECQ1) - Round 2 Cherry Picks; also: nearly all actives have a fitted effect of over 50% in size
# Conditions: recombinant RECQ1 DNA unwinding, red fluorescence; series mostly up to 119 µM; activity, negative = inhibition: at the top concentration
# In short: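 RECQ1T1 (50 nM) was preincubated 15 min at room temperature with compounds in Tris pH 8.0 buffer with 2.5 ug/ml poly(dI-dC). Unwinding of 200 nM TAMRA/BHQ-2 forked duplex with 2 mM ATP was read twice, 2 h apart, normalized to enzyme-free and DMSO controls.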
# % is scaled to controls: 0 for no effect and ±100 for the full control effect; potency is read from the fitted curve at half-maximal effect; tags tell the direction and shape of the fitted curve.
SMILES,Potency,"activity, negative = inhibition"
O=C(/C=C/c1ccco1)N1CCCC(c2ccccc2)C1 (stereo not given),"inconclusive: 56.2 µM [inhibitor, partial curve]",
CCCCn1c(SCC(=O)c2ccc(O)c(O)c2)nc2ccsc2c1=O,active: 8.91 µM,
Cc1cc(C)cc(NC(=O)c2nnn(Cc3cc(C)ccc3C)c2N)c1,,inactive: -18%
N#C/C(=C\c1ccc(C(=O)O)cc1)c1nc2sc3c(c2c(=O)[nH]1)CCCC3,"inconclusive: 28.2 µM [inhibitor, full curve]",
C=CCn1c(SCC(=O)NCC2CCCO2)nc2scc(-c3ccco3)c2c1=O (stereo not given),"inconclusive: 35.5 µM [inhibitor, partial curve]",
Cc1nnc(NC(=O)CCSCCC(=O)Nc2nnc(C)s2)s1,active: 15.8 µM,
CCn1c(=O)c(=O)[nH]c2cc(C(=O)N3CCN(c4ccccc4F)CC3)ccc21,active: 79.4 µM,
N#C/C(=C\c1ccc(N2CCOCC2)o1)c1nc2ccccc2[nH]1,"inconclusive: 63.1 µM [inhibitor, partial curve, poor fit]",
Cc1ccc(OCc2ccc(C(=O)Nc3ccc(C(N)=O)cc3)o2)c([N+](=O)[O-])c1,"inconclusive: 50.1 µM [inhibitor, partial curve]",
O=C(/C=C\c1ccco1)c1ccc(NC(=O)c2ccco2)cc1,"inconclusive: 31.6 µM [inhibitor, partial curve, poor fit]",
COc1ccc(S(=O)(=O)/N=C2/NC(=O)/C(=C/c3ccco3)S2)cc1,,inactive: -26.6%
CCC1(CC)NC(=O)N(CC(=O)Nc2sc3c(c2C(N)=O)CCC3)C1=O,"inconclusive: 39.8 µM [inhibitor, partial curve, poor fit]",
COc1ccc(CCNc2ncnc3c2[nH]c2cc(OC)c(OC)cc23)cc1OC,"inconclusive: 31.6 µM [inhibitor, full curve]",
O=C(CSc1nccc(=O)[nH]1)N1N=C2/C(=C/c3ccco3)CCCC2C1c1ccco1 (stereo not given),"inconclusive: 63.1 µM [inhibitor, partial curve, poor fit]",
COc1c(O)cc2c(=O)oc3c(OC)c(O)cc4c(=O)oc1c2c34,active: 0.794 µM,
CC(=O)C(C(C)=O)C1(O)C(=O)c2ccccc2C1=O,,inactive: -9.03%
Cc1ccc(-n2cccc2C(=O)NS(=O)(=O)c2ccc(C)cc2)cc1,"inconclusive: 44.7 µM [inhibitor, partial curve]",
CC(=O)c1ccc(S(=O)(=O)Nc2ccc(-c3ccc4nnc(C)n4n3)cc2)cc1,"inconclusive: 63.1 µM [inhibitor, partial curve, poor fit]",
O=C(c1ccc(Nc2nccc(-c3cc4ccccc4s3)n2)cc1)N1CCC(N2CCCC2)CC1,active: 25.1 µM,
O=C(N=C1SCC(=O)N1c1ccccc1Cl)c1ccco1,"inconclusive: 89.1 µM [inhibitor, partial curve, poor fit]",
CC(C)C1N=C2c3ccccc3N=C(SCC(=O)c3ccc(O)c(O)c3)N2C1=O (stereo not given),active: 3.16 µM,
O=c1nc(/C=C/c2cccn2-c2ccc([N+](=O)[O-])cc2)cc(C(F)(F)F)[nH]1,"inconclusive: 79.4 µM [inhibitor, partial curve]",
Cc1c(CCOC(=O)c2ccc(N3CCOCC3)c([N+](=O)[O-])c2)sc[n+]1CC#N,"inconclusive: 50.1 µM [inhibitor, partial curve]",
CC(=O)Nc1ccc(-n2nnnc2SCC(=O)Nc2cccc(NC(=O)c3ccco3)c2)cc1,"inconclusive: 50.1 µM [inhibitor, partial curve]",

SMILES,Potency,"activity, negative = inhibition"
CC1CCCCC1NC(=S)NC(=O)c1ccccc1Br (stereo not given),,inactive: -12.8%
CN(c1ccc(F)cc1)S(=O)(=O)c1ccc(Cl)c(C(=O)Nc2ccc3c(c2)CCC3)c1,,inactive: -16.1%
CCOC(=O)Cc1cc(=O)n(-c2nc3ccccc3s2)[nH]1,,inactive: -21.7%
COc1ccc(OC)c(-c2csc(NC(=O)Cn3[nH]c(=O)c4ccccc4c3=O)n2)c1,"inconclusive: 14.1 µM [inhibitor, full curve]",
CCC(C)NC(=O)c1ccccc1NC(=O)c1ccc(CSc2ccc(C)cc2)cc1 (stereo not given),,inactive: -16.3%
COc1ccccc1/C=c1\sc2nc(-c3ccco3)nn2c1=O,"inconclusive: 14.1 µM [inhibitor, partial curve]",
Cn1nc(C(=O)Nc2nc3ccccc3[nH]2)c2ccccc2c1=O,"inconclusive: 100 µM [inhibitor, single point]",
COC(=O)c1ccccc1NC(=O)CCS(=O)(=O)c1ccc(Br)cc1,"inconclusive: 10 µM [inhibitor, full curve]",
Cc1c(C)c2c(c(C)c1O)CCC(C)(COc1ccc(CC3SC(=O)NC3=O)cc1)O2 (stereo not given),"inconclusive: 56.2 µM [inhibitor, partial curve] and inconclusive: 79.4 µM [inhibitor, partial curve]",
CC(C)(C)C(=O)OCCNc1nc(-c2ccccc2)nc2ccccc12,,inactive: -16.9%
Oc1c(C=Nc2cccc3nsnc23)ccc2ccccc12,active: 39.8 µM,
CCn1c(SCC(=O)c2ccc(O)c(O)c2)nnc1-c1ccccc1OC,active: 2 µM,
Cc1cc2c(NC(=O)Nc3ccccc3)cccc2nn1,,inactive: -0.181%
Cc1cc(NC(=O)Cc2cccs2)no1,"inconclusive: 56.2 µM [inhibitor, partial curve, poor fit]",
O=C(CCS(=O)(=O)c1ccc(Br)cc1)Nc1ccc(Br)cc1F,"inconclusive: 14.1 µM [inhibitor, full curve]",
COC1=C(Nc2ccc(C)cc2)C(=O)c2ccccc2C1=O,,inactive: -13.6%
COc1ccc(CN(C(=O)/C=C/c2ccco2)C2CCS(=O)(=O)C2)cc1 (stereo not given),"inconclusive: 44.7 µM [inhibitor, partial curve]",
Cc1ccc(NC(=O)CN2C(=O)S/C(=C/c3ccc(O)c([N+](=O)[O-])c3)C2=O)cc1C,active: 22.4 µM,
CNc1ccc(Br)cc(C(=O)/C=C/c2ccc3c(c2)OCO3)c1=O,"inconclusive: 50.1 µM [inhibitor, partial curve, poor fit]",
CCN1C(=O)C(CC(=O)Nc2ccc(F)cc2)N(CCc2ccc(OC)cc2)C1=S (stereo not given),,inactive: -17.3%
NC(=O)CSc1nc2scc(-c3ccco3)c2c(=O)n1-c1ccccc1,"inconclusive: 56.2 µM [inhibitor, partial curve]",
Cc1ccc(CNC(=O)CCS(=O)(=O)c2ccc(Br)cc2)cc1,"inconclusive: 3.55 µM [inhibitor, full curve]",
CC(=O)Nc1sc2c(c1-c1nc3ccccc3s1)CCN(C(C)C)C2,active: 44.7 µM,
O=c1/c(=C/c2ccco2)sc2nc(-c3ccccc3Br)nn12,"inconclusive: 79.4 µM [inhibitor, partial curve, poor fit]",

SMILES,Potency,"activity, negative = inhibition"
O=C(Nc1ccc(S(=O)(=O)Nc2nccs2)cc1)c1ccc(=O)[nH]c1,"inconclusive: 56.2 µM [inhibitor, partial curve, poor fit]",
O=C(O)CC/C(=C\c1ccc(N2CCCC2)c([N+](=O)[O-])c1)c1nc2ccccc2s1,"inconclusive: 28.2 µM [inhibitor, full curve]",
CC(O)c1c(-c2ccccc2)nn(C)c1Cl (stereo not given),,inactive: -8.51%
COc1ccc(CCNC(=O)CSc2ccc(-c3ccco3)nn2)cc1,"inconclusive: 56.2 µM [inhibitor, partial curve]",
O=C1CCCC2=C1C(c1ccc(O)c(O)c1)c1c(ccc3ncccc13)N2 (stereo not given),"inconclusive: 50.1 µM [inhibitor, partial curve]",
CCOC(=O)c1cc2c(ccn2C)n1Cc1ccccc1C,"inconclusive: 50.1 µM [inhibitor, full curve, poor fit]",
CS/C(=N\S(=O)(=O)c1cccs1)NC(=O)CSc1nc2ccccc2s1,"inconclusive: 56.2 µM [inhibitor, partial curve]",
Cc1cc(C(=O)COC(=O)CNC(=O)c2ccco2)c(C)n1Cc1ccco1,,inactive: -5.76%
CCC(/C=C1\Sc2ccc(OC)cc2N1CCO)=C\c1sc2ccc(OC)cc2[n+]1CCO,active: 44.7 µM,
O=C(NCc1ccc2c(c1)OCO2)C1CCCN(S(=O)(=O)c2cccnc2)C1 (stereo not given),,inactive: -2.56%
COc1ccc(-c2cc3nc(-c4ccccc4)cc(N4CCCC(O)C4)n3n2)cc1 (stereo not given),,inactive: -11.4%
Cc1ccccc1NS(=O)(=O)c1cc(C(=O)N2CCc3ccccc3C2)ccc1C,,inactive: -8.43%
O=c1oc2ccccc2c2oc3cc(O)c(O)cc3c12,active: 35.5 µM,
CN1C(=O)/C(=C/c2ccco2)SC1=Nc1cccc(C(=O)O)c1,,inactive: -25.9%
CCN1CCN(c2cc(C)c3cc(NC(=O)c4ccc(OC)c(OC)c4)ccc3n2)CC1,"inconclusive: 50.1 µM [inhibitor, partial curve]",
Cc1nc2ccc(C(=O)Nc3cccc([N+](=O)[O-])c3)cc2s1,,inactive: -5.92%
Cc1ccc(-n2nc(-c3ccco3)cc2C(=O)O)c(C)c1,"inconclusive: 20 µM [inhibitor, full curve]",
COc1ccc(S(=O)(=O)N2CN(Cc3ccco3)c3nc4ccccc4nc32)cc1,"inconclusive: 70.8 µM [inhibitor, partial curve, poor fit]",
CCOC(=O)c1ccc(NC(=O)CSc2nc(C)cc(=O)[nH]2)cc1,"inconclusive: 22.4 µM [inhibitor, full curve]",
O=C(O)c1cc(-c2ccco2)nn1-c1cccc(Cl)c1,"inconclusive: 44.7 µM [inhibitor, partial curve]",
COC(=O)c1cc(O)cc(OC)c1Oc1cc(C)cc(O)c1C(=O)O,active: 5.01 µM,
C=CCOc1ccccc1/C=c1\sc2nc(=O)c(C)nn2c1=O,"inconclusive: 35.5 µM [inhibitor, partial curve, poor fit]",
